Reference: the supplement of paper PMC10369915
The list shows a part of the results. Cut-off read from the data, not from the text of the source: active = 3.2 or more and inactive = the rest. Most of these values are background signal.

B1: DOK7_Y405 (peptide)
chain: SLRAHYDTPRS
B2: DPPA2_Y127_R131Q (peptide)
chain: LHRHAYPEQQQ
B3: DPYSL2_Y479 (peptide)
chain: FPDFVYKRIKA
B4: DPYSL2_Y479_R481C (peptide)
chain: FPDFVYKCIKA
B5: DRC7_Y516 (peptide)
chain: LRVHSYKSMQP
B6: DRC7_Y516_P521H (peptide)
chain: LRVHSYKSMQH
B7: DSC1_Y846_C848F (peptide)
chain: KHCEDYVFSYN
B8: DSC1_Y846_C848F_YF (peptide)
chain: KHCEDYVFSFN
B9: DSC1_Y846_YF (peptide)
chain: KHCEDYVCSFN
B10: DSG2_Y775_R773K (peptide)
chain: EFLKNYFTDKA
B11: DSP_Y1512_Y1512C (peptide)
chain: LQRVQCDLQKA
B12: DSP_Y1542_R1537C (peptide)
chain: CLRIDYERVSQ
B13: DTX3L_Y385_K386Q (peptide)
chain: VDSAHYQLLET
B14: DUOX2_Y70_YF (peptide)
chain: FADGVYQALEE
B15: DUS3L_Y610_D609N_YF (peptide)
chain: FLGRNYLETLM
B16: DUS3L_Y610_YF (peptide)
chain: FLGRDYLETLM
B17: DYNC1H1_Y3051 (peptide)
chain: SHEELYKWFTS
B18: DYNC1H1_Y3379_R3384Q_YF (peptide)
chain: NPSFNYEIVNQ
B19: DYNC2H1_Y2230_M2227V (peptide)
chain: KPVDTYYDSTR
B20: DYNC2H1_Y2231_M2227V (peptide)
chain: PVDTYYDSTRG
B21: DYNC2H1_Y2231_M2227V_YF (peptide)
chain: PVDTFYDSTRG
B22: DYNC2H1_Y2231_YF (peptide)
chain: PMDTFYDSTRG
B23: DYNC2H1_Y346 (peptide)
chain: HEKFLYFLPAS
B24: DYNC2H1_Y346_H341Y (peptide)
chain: YEKFLYFLPAS
B25: DYNC2H1_Y346_H341Y_YF (peptide)
chain: FEKFLYFLPAS
B26: DYRK1B_Y271_Q275R_YF (peptide)
chain: LGQRIYQFIRS
B27: DYRK1B_Y271_YF (peptide)
chain: LGQRIYQFIQS
B28: DYRK1B_Y273_Q275R_YF (peptide)
chain: QRIFQYIRSRF
B29: DYSF_Y1684_G1679E (peptide)
chain: ELPQTYCVSGP
B30: DYSF_Y1858_H1857R (peptide)
chain: KTDVRYRSLGG
B31: E2F3_Y349 (peptide)
chain: GPIEVYLCPEE
B32: ECD_Y448 (peptide)
chain: EKEQNYDLTEV
B33: ECD_Y448_E452Q (peptide)
chain: EKEQNYDLTQV
B34: ECEL1_Y400 (peptide)
chain: RVLHNYLVWRV
B35: ECEL1_Y400_R404C (peptide)
chain: RVLHNYLVWCV
B36: ECHS1_Y137 (peptide)
chain: AAVNGYAFGGG
B37: ECHS1_Y137_A132T (peptide)
chain: TAVNGYAFGGG

What follows are binders tested against SHP2 C-SH2 domain E139D (assay: enrichment score (SH2-bound / input frequency) (ratio); bacterial display of known human phosphotyrosine sites (pTyr-Var adds point mutants) read by sequencing; higher = stronger binding; tyrosines were phosphorylated by kinases first). Conditions: peptide library: pTyr-Var.
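Note: displayed peptides selected on beads carrying the immobilized SH2 domain, with library peptides lacking any tyrosine serving as negative controls.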

Binder | enrichment score
B1 | inactive: 0.508
B2 | inactive: 2.37
B3 | inactive: 0.641
B4 | inactive: 0.838
B5 | inactive: 1.17
B6 | inactive: 2.03
B7 | inactive: 1.08
B8 | inactive: 1.2
B9 | inactive: 1.61
B10 | inactive: 1.2
B11 | inactive: 0.723
B12 | inactive: 1.09
B13 | inactive: 0.804
B14 | inactive: 0.727
B15 | inactive: 1.68
B16 | inactive: 1.32
B17 | inactive: 1.23
B18 | inactive: 0.75
B19 | inactive: 0.579

Binder | enrichment score
B20 | inactive: 0.524
B21 | inactive: 0.534
B22 | inactive: 0.69
B23 | inactive: 1.21
B24 | inactive: 1.39
B25 | inactive: 1.4
B26 | inactive: 1.39
B27 | inactive: 2.04
B28 | inactive: 0.315
B29 | inactive: 0.88
B30 | inactive: 0.326
B31 | inactive: 0.655
B32 | inactive: 0.605
B33 | inactive: 0.455
B34 | inactive: 3
B35 | inactive: 2.66
B36 | inactive: 0.809
B37 | inactive: 0.819

Each binder was assayed against SHP2 C-SH2 domain wild-type in the same assay as above. Conditions: peptide library: pTyr-Var.

Binder | enrichment score
B1 | inactive: 0.6
B2 | inactive: 2.01
B3 | inactive: 0.425
B4 | inactive: 0.933
B5 | inactive: 0.845
B6 | inactive: 1.94
B7 | inactive: 1.13
B8 | inactive: 1.11
B9 | inactive: 1.86
B10 | inactive: 0.762
B11 | inactive: 1.17
B12 | inactive: 1.51
B13 | inactive: 0.697
B14 | inactive: 0.944
B15 | inactive: 1.55
B16 | inactive: 1.03
B17 | inactive: 1.22
B18 | inactive: 0.617
B19 | inactive: 0.671

Binder | enrichment score
B20 | inactive: 0.519
B21 | inactive: 0.741
B22 | inactive: 0.538
B23 | inactive: 1.65
B24 | inactive: 1.37
B25 | inactive: 1.37
B26 | inactive: 1.2
B27 | inactive: 1.84
B28 | inactive: 0.213
B29 | inactive: 0.676
B30 | inactive: 0.653
B31 | inactive: 0.677
B32 | inactive: 0.398
B33 | inactive: 0.515
B34 | inactive: 2.54
B35 | inactive: 3.08
B36 | inactive: 0.787
B37 | inactive: 0.661

What follows are binders tested against SHP2 N-SH2 domain L43F in the same assay as above. Conditions: peptide library: pTyr-Var.

Binder | enrichment score
B1 | inactive: 0.57
B2 | inactive: 1.81
B3 | inactive: 0.505
B4 | inactive: 0.871
B5 | inactive: 1.23
B6 | inactive: 1.91
B7 | inactive: 0.755
B8 | inactive: 0.868
B9 | inactive: 1.82
B10 | inactive: 1.09
B11 | inactive: 0.761
B12 | inactive: 1.11
B13 | inactive: 0.683
B14 | inactive: 0.672
B15 | inactive: 1.66
B16 | inactive: 1.18
B17 | inactive: 1.14
B18 | inactive: 0.812
B19 | inactive: 0.581

Binder | enrichment score
B20 | inactive: 0.559
B21 | inactive: 0.91
B22 | inactive: 0.816
B23 | inactive: 1.51
B24 | inactive: 1.29
B25 | inactive: 1.2
B26 | inactive: 1.36
B27 | inactive: 2.11
B28 | inactive: 0.197
B29 | inactive: 0.706
B30 | inactive: 0.437
B31 | inactive: 0.779
B32 | inactive: 0.507
B33 | inactive: 0.531
B34 | inactive: 2.64
B35 | active: 3.75
B36 | inactive: 0.665
B37 | inactive: 0.647

The binders below were run against SHP2 N-SH2 domain T42A in the same assay as above. Conditions: peptide library: pTyr-Var.

Binder | enrichment score
B1 | inactive: 0.545
B2 | inactive: 1.71
B3 | inactive: 0.469
B4 | inactive: 0.673
B5 | inactive: 0.992
B6 | inactive: 1.26
B7 | inactive: 0.944
B8 | inactive: 1.02
B9 | inactive: 1.58
B10 | inactive: 0.802
B11 | inactive: 0.711
B12 | inactive: 0.972
B13 | inactive: 0.665
B14 | inactive: 0.61
B15 | inactive: 1.8
B16 | inactive: 1.19
B17 | inactive: 1.09
B18 | inactive: 0.708
B19 | inactive: 0.482

Binder | enrichment score
B20 | inactive: 0.651
B21 | inactive: 0.717
B22 | inactive: 0.627
B23 | inactive: 2.51
B24 | inactive: 1.5
B25 | inactive: 1.38
B26 | inactive: 1.16
B27 | inactive: 1.65
B28 | inactive: 0.334
B29 | inactive: 0.602
B30 | inactive: 0.591
B31 | inactive: 0.737
B32 | inactive: 0.437
B33 | inactive: 0.48
B34 | inactive: 2.81
B35 | inactive: 2.8
B36 | inactive: 0.625
B37 | inactive: 0.771

What follows are binders tested against SHP2 N-SH2 domain T52S in the same assay as above. Conditions: peptide library: pTyr-Var.

Binder | enrichment score
B1 | inactive: 0.428
B2 | inactive: 2.15
B3 | inactive: 0.78
B4 | inactive: 0.788
B5 | inactive: 1.05
B6 | inactive: 1.96
B7 | inactive: 0.886
B8 | inactive: 1.23
B9 | inactive: 1.86
B10 | inactive: 0.89
B11 | inactive: 1.21
B12 | inactive: 1.09
B13 | inactive: 0.642
B14 | inactive: 0.798
B15 | inactive: 1.66
B16 | inactive: 1.08
B17 | inactive: 1.35
B18 | inactive: 0.681
B19 | inactive: 0.67

Binder | enrichment score
B20 | inactive: 0.506
B21 | inactive: 0.678
B22 | inactive: 0.767
B23 | inactive: 1.58
B24 | inactive: 1.24
B25 | inactive: 1.4
B26 | inactive: 1.32
B27 | inactive: 1.8
B28 | inactive: 0.315
B29 | inactive: 0.569
B30 | inactive: 0.575
B31 | inactive: 0.565
B32 | inactive: 0.363
B33 | inactive: 0.525
B34 | inactive: 2.82
B35 | inactive: 2.53
B36 | inactive: 0.832
B37 | inactive: 1.04

What follows are binders tested against SHP2 N-SH2 domain wild-type in the same assay as above. Conditions: peptide library: pTyr-Var.

Binder | enrichment score
B1 | inactive: 0.612
B2 | inactive: 2.25
B3 | inactive: 0.564
B4 | inactive: 1.02
B5 | inactive: 0.95
B6 | inactive: 1.43
B7 | inactive: 1.25
B8 | inactive: 1.43
B9 | inactive: 1.61
B10 | inactive: 1.38
B11 | inactive: 1.07
B12 | inactive: 1.71
B13 | inactive: 0.91
B14 | inactive: 0.903
B15 | inactive: 1.7
B16 | inactive: 1.04
B17 | inactive: 1.29
B18 | inactive: 0.612
B19 | inactive: 0.75

Binder | enrichment score
B20 | inactive: 0.697
B21 | inactive: 0.737
B22 | inactive: 0.73
B23 | inactive: 3
B24 | inactive: 1.14
B25 | inactive: 1.41
B26 | inactive: 1.41
B27 | inactive: 1.86
B28 | inactive: 0.168
B29 | inactive: 0.825
B30 | inactive: 0.562
B31 | inactive: 0.917
B32 | inactive: 0.328
B33 | inactive: 0.576
B34 | inactive: 2.76
B35 | active: 3.37
B36 | inactive: 0.763
B37 | inactive: 0.801
